Patent publication US5883097A, “Soluble azole antifungal salt” (Schering Corporation, priority 1998, dated 1999)

Test system: Candida, other yeasts, dematophytes, Aspergillus and opportunistic fungi
Assay: In vitro antifungal activity, broth dilution, various fungi
Assay type: cell-based
Details: SDB and EMEM, MIC 24, 48, 72 h, MFC 48, 72 h

Compound: CCC(C(C)O)n1ncn(-c2ccc(N3CCN(c4ccc(OCC5COC(Cn6cncn6)(c6ccc(F)cc6F)C5)cc4)CC3)cc2)c1=O [compound of formula II, -(2 R-cis)-4-[4-[4-[4-[[-5-(2,4-Difluorophenyl)-tetrahydro-5-(1 H-1,2,4-triazol-1-ylmethyl)furan-3-yl]methoxy]phenyl]-1-piperazinyl]phenyl]-2-4-dihydro-2-[(1 S)-ethyl-2(S)-hydroxypropyl]-3 H-1,2,4-triazol-3-one]
- in vitro antifungal activity: broad spectrum antifungal activity
